# Results from the supplement of paper PMC8728848.
# The other results are listed elsewhere or left out.
# B1: Cohesin-mDC-ASGPR (Macaca mulatta) (protein)
# chain: LDITSHHHHHHDDLDAVRIKVDTVNAKPGDTVRIPVRFSGIPSKGIANCDFVYSYDPNVLEIIEIEPGDIIVDPNPDKSFDTAVYPDRKIIVFLFAEDSGTGAYAITKDGVFATIVAKVKEGAPNGLSVIKFVEVGGFANNDLVEQKTQFFDGGVNVGDTTEPATPTTPVTTPTTTDDLDAASSQNSKFQRDLVTLRTDFSNFTSNTVAEIQALTSQGSSVEEMIASLKAEVEVIKQEQQAVHSEMLLRVQRLMQDLNKLTCQVATLKNNASTERTCCPVNWVEHQDSCYWFSRSGMPWAEAEKHCQLENAHLVVINSREEQNFVQEHLSFAYTWMGLSDREGAWKWVDGTDYETGFQNWKPGQPDDWQGHGLGGGEDCAHFHPDGRWNDDVCQRPYYWVCEAGLTQASQESH
# Columns and labels:
# Assay in all cases: glycan array binding signal (z-score within array); higher = stronger binding
# Conditions in all cases: glycan notation: IUPAC condensed, linker removed
# [1] = biological target: Gal(a1-3)[Gal(a1-4)]Gal(b1-4)GlcNAc
# Procedure, shortened: (§1)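 Columns mapping to the same glycan were averaged after glycan names were converted to IUPAC-condensed notation. The data come from 3228 arrays in the Consortium for Functional Glycomics database, limited to those with an available protein sequence. Binding is reported as a within-array Z-score averaged across arrays of one protein sequence and across linkers.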
# [2] = biological target: Gal(a1-4)Gal(b1-3)GlcNAc(b1-2)Man(a1-3)[Gal(a1-4)Gal(b1-3)GlcNAc(b1-2)Man(a1-6)]Man(b1-4)GlcNAc(b1-4)GlcNAc
# Procedure, shortened: as §1
# [3] = biological target: Gal(a1-4)Gal(b1-4)Glc
# Procedure, shortened: as §1
# [4] = biological target: Gal(a1-4)Gal(b1-4)GlcNAc
# Procedure, shortened: as §1
# [5] = biological target: Gal(a1-4)Gal(b1-4)GlcNAc(b1-2)Man(a1-3)[Gal(a1-4)Gal(b1-4)GlcNAc(b1-2)Man(a1-6)]Man(b1-4)GlcNAc(b1-4)GlcNAc
# Procedure, shortened: as §1
# [6] = biological target: Gal(a1-4)Gal(b1-4)GlcNAc(b1-3)Gal(b1-4)Glc
# Procedure, shortened: as §1
# [7] = biological target: Gal(a1-4)GlcNAc
# Procedure, shortened: as §1
# [8] = biological target: Gal(a1-6)Glc
# Procedure, shortened: as §1
# [9] = biological target: Gal(b1-2)Gal
# Procedure, shortened: as §1
# [10] = biological target: Gal(b1-3)Gal
# Procedure, shortened: as §1
# [11] = biological target: Gal(b1-3)Gal(b1-4)GlcNAc
# Procedure, shortened: as §1
# [12] = biological target: Gal(b1-3)GalNAc
# Procedure, shortened: as §1
# [13] = biological target: Gal(b1-3)GalNAc(a1-3)[Fuc(a1-2)]Gal(b1-4)Glc
# Procedure, shortened: as §1
# [14] = biological target: Gal(b1-3)GalNAc(a1-3)[Fuc(a1-2)]Gal(b1-4)GlcNAc
# Procedure, shortened: as §1
# [15] = biological target: Gal(b1-3)GalNAc(b1-3)Gal
# Procedure, shortened: as §1
# [16] = biological target: Gal(b1-3)GalNAc(b1-3)Gal(a1-4)Gal(b1-4)Glc
# Procedure, shortened: as §1
# [17] = biological target: Gal(b1-3)GalNAc(b1-4)Gal(b1-4)Glc
# Procedure, shortened: as §1
# [18] = biological target: Gal(b1-3)GalNAc(b1-4)[Neu5Ac(a2-3)]Gal(b1-4)Glc
# Procedure, shortened: as §1
# [19] = biological target: Gal(b1-3)GlcNAc
# Procedure, shortened: as §1
# [20] = biological target: Gal(b1-3)GlcNAc(a1-3)Gal(b1-4)GlcNAc
# Procedure, shortened: as §1
# [21] = biological target: Gal(b1-3)GlcNAc(a1-6)Gal(b1-4)GlcNAc
# Procedure, shortened: as §1
# [22] = biological target: Gal(b1-3)GlcNAc(b1-2)Man
# Procedure, shortened: as §1
# [23] = biological target: Gal(b1-3)GlcNAc(b1-2)Man(a1-3)[Gal(b1-3)GlcNAc(b1-2)Man(a1-6)]Man(b1-4)GlcNAc(b1-4)GlcNAc
# Procedure, shortened: as §1
# [24] = biological target: Gal(b1-3)GlcNAc(b1-2)Man(a1-3)[Gal(b1-3)GlcNAc(b1-2)Man(a1-6)]Man(b1-4)GlcNAc(b1-4)[Fuc(a1-6)]GlcNAc
# Procedure, shortened: as §1
# [25] = biological target: Gal(b1-3)GlcNAc(b1-2)Man(a1-3)[GlcNAc(b1-4)][Gal(b1-3)GlcNAc(b1-2)Man(a1-6)]Man(b1-4)GlcNAc(b1-4)GlcNAc
# Procedure, shortened: as §1
# [26] = biological target: Gal(b1-3)GlcNAc(b1-2)[Gal(b1-3)GlcNAc(b1-6)]Man(a1-6)[Gal(b1-3)GlcNAc(b1-2)Man(a1-3)]Man(b1-4)GlcNAc(b1-4)GlcNAc
# Procedure, shortened: as §1
# [27] = biological target: Gal(b1-3)GlcNAc(b1-3)Gal(b1-3)GlcNAc
# Procedure, shortened: as §1
# [28] = biological target: Gal(b1-3)GlcNAc(b1-3)Gal(b1-4)Glc
# Procedure, shortened: as §1
# [29] = biological target: Gal(b1-3)GlcNAc(b1-3)Gal(b1-4)GlcNAc
# Procedure, shortened: as §1
# [30] = biological target: Gal(b1-3)GlcNAc(b1-3)Gal(b1-4)GlcNAc(b1-2)Man(a1-3)[Gal(b1-3)GlcNAc(b1-3)Gal(b1-4)GlcNAc(b1-2)Man(a1-6)]Man(b1-4)GlcNAc(b1-4)GlcNAc
# Procedure, shortened: as §1
# [31] = biological target: Gal(b1-3)GlcNAc(b1-3)Gal(b1-4)GlcNAc(b1-2)[Gal(b1-3)GlcNAc(b1-3)Gal(b1-4)GlcNAc(b1-6)]Man(a1-6)[Gal(b1-3)GlcNAc(b1-3)Gal(b1-4)GlcNAc(b1-2)Man(a1-3)]Man(b1-4)GlcNAc(b1-4)[Fuc(a1-6)]GlcNAc
# Procedure, shortened: as §1
# [32] = biological target: Gal(b1-3)GlcNAc(b1-3)Gal(b1-4)GlcNAc(b1-3)Gal(b1-4)GlcNAc(b1-2)[Gal(b1-3)GlcNAc(b1-3)Gal(b1-4)GlcNAc(b1-3)Gal(b1-4)GlcNAc(b1-6)]Man(a1-6)[Gal(b1-3)GlcNAc(b1-3)Gal(b1-4)GlcNAc(b1-3)Gal(b1-4)GlcNAc(b1-2)Man(a1-3)]Man(b1-4)GlcNAc(b1-4)[Fuc(a1-6)]GlcNAc
# Procedure, shortened: as §1
# [33] = biological target: Gal(b1-3)GlcNAc(b1-3)Gal(b1-4)GlcNAc(b1-6)[Gal(b1-3)GlcNAc(b1-3)]Gal(b1-4)Glc
# Procedure, shortened: as §1
# [34] = biological target: Gal(b1-3)GlcNAc(b1-3)Gal(b1-4)[Fuc(a1-3)]GlcNAc
# Procedure, shortened: as §1
# [35] = biological target: Gal(b1-3)GlcNAc(b1-3)Gal(b1-4)[Fuc(a1-3)]GlcNAc(b1-6)[Gal(b1-3)GlcNAc(b1-3)]Gal(b1-4)Glc
# Procedure, shortened: as §1
# [36] = biological target: Gal(b1-3)GlcNAc(b1-3)GalNAc
# Procedure, shortened: as §1
# [37] = biological target: Gal(b1-3)GlcNAc(b1-6)Gal(b1-4)GlcNAc
# Procedure, shortened: as §1
# [38] = biological target: Gal(b1-3)GlcNAc(b1-6)GalNAc
# Procedure, shortened: as §1
binder,measurement,setting,value
B1,glycan array binding signal (z-score),[1],-0.433
same,glycan array binding signal (z-score),[2],-0.414
same,glycan array binding signal (z-score),[3],-0.272
same,glycan array binding signal (z-score),[4],-0.412
same,glycan array binding signal (z-score),[5],-0.413
same,glycan array binding signal (z-score),[6],-0.401
same,glycan array binding signal (z-score),[7],-0.384
same,glycan array binding signal (z-score),[8],-0.379
same,glycan array binding signal (z-score),[9],-0.312
same,glycan array binding signal (z-score),[10],-0.401
same,glycan array binding signal (z-score),[11],-0.416
same,glycan array binding signal (z-score),[12],-0.391
same,glycan array binding signal (z-score),[13],-0.391
same,glycan array binding signal (z-score),[14],-0.414
same,glycan array binding signal (z-score),[15],-0.244
same,glycan array binding signal (z-score),[16],2.85
same,glycan array binding signal (z-score),[17],-0.274
same,glycan array binding signal (z-score),[18],2.25
same,glycan array binding signal (z-score),[19],-0.378
same,glycan array binding signal (z-score),[20],-0.425
same,glycan array binding signal (z-score),[21],-0.381
same,glycan array binding signal (z-score),[22],-0.313
same,glycan array binding signal (z-score),[23],-0.431
same,glycan array binding signal (z-score),[24],-0.402
same,glycan array binding signal (z-score),[25],-0.4
same,glycan array binding signal (z-score),[26],-0.399
same,glycan array binding signal (z-score),[27],-0.417
same,glycan array binding signal (z-score),[28],-0.403
same,glycan array binding signal (z-score),[29],-0.422
same,glycan array binding signal (z-score),[30],-0.218
same,glycan array binding signal (z-score),[31],-0.251
same,glycan array binding signal (z-score),[32],0.172
same,glycan array binding signal (z-score),[33],-0.416
same,glycan array binding signal (z-score),[34],-0.428
same,glycan array binding signal (z-score),[35],-0.418
same,glycan array binding signal (z-score),[36],-0.388
same,glycan array binding signal (z-score),[37],-0.397
same,glycan array binding signal (z-score),[38],2.42
